Source: the supplement of paper PMC9433436
± gives the standard deviation of the averaged measurements. The full ranking holds about 4,100 sequences; the median of “relative kcat/Km (krel) vs genomic leader AAAGAU” is about 1.7, and the highest 2% start at about 6.5. The entries are a selection whose mix differs from that of the whole data set.

Molecular target: T1, E. coli RNase P holoenzyme (M1 P RNA + rnpA protein) (UniProt P0A7Y8)
T1 sequence: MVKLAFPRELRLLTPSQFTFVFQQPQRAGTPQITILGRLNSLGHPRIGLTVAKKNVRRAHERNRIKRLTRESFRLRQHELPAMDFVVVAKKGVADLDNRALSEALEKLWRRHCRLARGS
Test: relative kcat/Km (krel) vs genomic leader AAAGAU (relative (reference leader = 1)); higher = faster RNase P cleavage
Method: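 HTS-Kin: a pool of ptRNA-Met (21C construct) with all 4096 combinations of 5' leader nucleotides N(-6) to N(-1) was processed in vitro by E. coli RNase P (P RNA + rnpA/C5 protein) under multiple-turnover conditions at 37 C, pH 8, 17.5 mM MgCl2. Residual substrate was Illumina-sequenced at several fractions reacted, and relative kcat/Km (krel) was computed by internal competition kinetics, calibrated to the genomic leader (AAAGAU = 1). The listed hexamer is the varied N(-6)..N(-1) leader (DNA letters), and it sits between a fixed 5' stem-loop flank (GCAUGCACGAAAGUGCGUGCUAUGAA) and the mature tRNA-Met starting GGCUACGUAGCUCAGUUGG. Two technical replicates are averaged.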

[1] = fraction of substrate reacted: ~9-10% (9.79% repeat 1, 9.1% repeat 2)
[2] = fraction of substrate reacted: ~13-16% (15.68% repeat 1, 13.17% repeat 2)
[3] = fraction of substrate reacted: ~26-29% (28.66% repeat 1, 26.4% repeat 2)

Row | Sequence | relative kcat/Km [1] | relative kcat/Km [2] | relative kcat/Km [3]
1 | TGCGTC | 0.775 ± 0.3 | 0.777 ± 0.29 | 0.986 ± 0.22
2 | TGTACG | 1.02 ± 0.78 | 1.03 ± 0.19 | 2.29 ± 0.24
3 | TTTGTT | 1.16 ± 0.81 | 1.28 ± 0.98 | 1.3 ± 0.66
4 | GGACCA | 1.5 ± 0.81 | 0.745 ± 0.49 | 1.27 ± 0.29
5 | AGAGAT | 0.682 ± 0.45 | 1.15 ± 0.6 | 1.75 ± 0.4
6 | CAATCA | 1.18 ± 1.1 | 1.03 ± 0.38 | 1.76 ± 0.06
7 | CTACGC | 1.71 ± 0.27 | 2.28 ± 0.12 | 3.27 ± 1.2
8 | CGAACA |  | 0.874 ± 0.36 | 1.44 ± 0.065
9 | AAGCGC | 2.63 ± 2.3 | 1.13 ± 0.26 | 1.5 ± 0.58
10 | CCACCA | 2.19 ± 1.3 |  | 1.33 ± 0.1
11 | GAAACC | 0.896 ± 0.47 | 0.359 ± 0.18 | 1.14 ± 0.22
12 | TGTGTG |  |  | 0.494 ± 0.45
13 | CTTTAC | 4.38 ± 1.7 | 4.59 ± 1.3 | 6.2 ± 1.9
14 | CGCCGC | 2.62 ± 0.84 | 3.479 ± 0.016 | 4.99 ± 2
15 | ACGAGT | 0.667 ± 0.11 | 0.638 ± 0.21 | 0.574 ± 0.3
16 | CACATT | 3.5 ± 1.3 | 4.74 ± 0.66 | 6.23 ± 2.3
17 | AGCTGC | 1.76 ± 0.18 | 2.22 ± 1 | 3.86 ± 1.9
18 | TTGGTC |  |  | 2.2 ± 2.2
19 | CCACGC | 2.46 ± 2 | 2.07 ± 0.11 | 2.44 ± 0.49
20 | TTACCC | 1.4 ± 1.3 | 1.78 ± 0.14 | 2.12 ± 0.43
21 | CAGCCT | 1.51 ± 0.2 | 1.59 ± 0.66 | 2.2 ± 1.4
22 | GTTGTT | 0.832 ± 0.53 | 0.86 ± 0.24 | 1.07 ± 0.92
23 | GTGCTC | 1.6 ± 0.97 |  | 0.741 ± 0.48
24 | TCTAGT |  |  | 2.43 ± 2.1
25 | CTGCAG | 1.07 ± 0.34 |  | 1.33 ± 0.64
26 | CGATTT | 2.8 ± 0.81 | 3.58 ± 1 | 4.49 ± 1.7
27 | TTAAGA | 1.95 ± 0.61 | 2.89 ± 0.47 | 3.88 ± 1.5

Row | Sequence | relative kcat/Km [1] | relative kcat/Km [2] | relative kcat/Km [3]
28 | ACCAGC | 2.88 ± 1.2 | 2.54 ± 1.1 | 3.89 ± 1.2
29 | CCCTTC | 3.11 ± 1.4 | 3.36 ± 0.74 | 4.51 ± 1.3
30 | CTTGAA | 2.09 ± 1 | 2.45 ± 0.55 | 3.29 ± 0.76
31 | TATGCA | 1.91 ± 1.2 | 1.67 ± 0.33 | 1.82 ± 0.36
32 | GGTTGC | 1.34 ± 0.2 | 1.35 ± 0.84 | 2.35 ± 1.3
33 | CGCGCC | 2.69 ± 1 | 3.36 ± 1.3 | 4.04 ± 1.4
34 | ATAGCA | 1.33 ± 0.72 | 1.62 ± 0.75 | 1.8 ± 0.085
35 | TGTATG |  |  | 1.93 ± 0.25
36 | CTCCCA | 2.2 ± 0.056 | 2.68 ± 0.55 | 3.68 ± 1.6
37 | CCCTGA | 3.36 ± 1.1 | 3.2 ± 1.4 | 5.02 ± 1.9
38 | TCATTC | 3.33 ± 1.4 | 4.37 ± 0.72 | 5.98 ± 2.3
39 | AGTTTG |  | 0.698 ± 0.046 | 2.25 ± 0.49
40 | TACCAC | 3.48 ± 1.4 | 4.03 ± 1.6 | 
41 | CGGAAC | 0.957 ± 0.39 | 1.52 ± 0.49 | 1.43 ± 0.079
42 | TGAGGG |  |  | 0.433 ± 0.41
43 | CATCAC | 3.71 ± 1.1 | 4.5 ± 0.64 | 6.27 ± 2.6
44 | ACCTCG |  |  | 1.87 ± 0.58
45 | AGCGGT |  |  | 0.859 ± 0.087
46 | TGGCAC |  |  | 0.862 ± 0.38
47 | GCCACG |  | 0.41 ± 0.19 | 1.695 ± 0.0087
48 | CACAGC | 3.88 ± 1.2 | 4.31 ± 1.1 | 5.98 ± 2.7
49 | GCGGCG | 1.23 ± 0.73 | 0.211 ± 0.19 | 
50 | ACTTTA | 1.56 ± 0.72 | 1.89 ± 0.44 | 2.18 ± 0.5
51 | CGATCG |  |  | 1.06 ± 0.34
52 | CTTGCC | 2.21 ± 1.8 | 1.76 ± 0.013 | 2.16 ± 0.2
53 | GTTCAG |  | 1.43 ± 0.25 | 3.25 ± 0.87
54 | CAGTCG |  | 0.568 ± 0.043 | 1.45 ± 0.42
